Results on 74 molecules are retold here after ChEMBL document CHEMBL5052851, “Mettl3 modulators” (2021).

The test system of one test is MOLM-13. Description: Antiproliferative activity against human MOLM-13 cells after 96 hrs by Cell Titer-Glo assay. Type of test: functional, cell-based. The note with it: MOLM-13, 96 h. On the technique in general: ATP-based viability assays read luminescence as a measure of living cells.
Test [1] deals with N6-adenosine-methyltransferase catalytic subunit (Homo sapiens, UniProt Q86U44). The test can be described thus: Inhibition of METTL3 (unknown origin) using UCUGGACUAAA-biotin and 3H-SAM as substrates preincubated for 5 mins followed by substrate addition incubated for 30 mins by TopCount scintillation counting method.
Sequence of UniProt Q86U44 (Q86U44 whole entry): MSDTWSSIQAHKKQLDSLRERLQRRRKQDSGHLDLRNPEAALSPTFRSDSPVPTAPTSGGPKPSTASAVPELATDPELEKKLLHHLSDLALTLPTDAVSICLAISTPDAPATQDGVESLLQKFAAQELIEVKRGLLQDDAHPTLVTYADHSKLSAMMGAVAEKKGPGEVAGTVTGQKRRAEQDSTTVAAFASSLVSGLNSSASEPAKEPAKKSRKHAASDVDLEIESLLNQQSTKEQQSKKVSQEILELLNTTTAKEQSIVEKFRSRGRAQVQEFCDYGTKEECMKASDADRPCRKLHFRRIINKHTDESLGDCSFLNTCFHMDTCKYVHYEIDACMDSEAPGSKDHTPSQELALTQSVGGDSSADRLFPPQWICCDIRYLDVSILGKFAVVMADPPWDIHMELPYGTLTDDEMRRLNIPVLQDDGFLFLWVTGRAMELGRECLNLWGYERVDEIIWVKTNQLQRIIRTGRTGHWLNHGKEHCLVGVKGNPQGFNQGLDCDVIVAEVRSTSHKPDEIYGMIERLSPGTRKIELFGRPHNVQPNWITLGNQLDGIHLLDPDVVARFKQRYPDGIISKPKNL
Test [2] is described as follows: Inhibition of METTL16 (unknown origin) using CGAUACAGAGAAGAUUAGCAUACGCAAAUUCGUGAAGCG-biotin and SAM as substrates preincubated for 5 mins followed by substrate addition incubated for 220 mins by TopCount scintillation counting method. On the set-up: species or system Homo sapiens.

SMILES strings stand for the structures.

Consider `CN(CCO)c1ccc2ccc(OCc3cncc(-n4cc(-c5ccn(C)n5)c5c(N)ncnc54)c3)cc2n1`, for which the IC50 (in general, the concentration needed to halve the response being measured) was below 1 µM in the test with MOLM-13 and below 0.01 µM in test [1]. For `CNc1ccc2ccc(OCc3cccc(-n4cc(C5CCCC5)c5c(N)ncnc54)c3)cc2n1`, the IC50 in test [2] is at least 1 µM. The same measure, in the same setting: the figure for `C[C@H]1CCN1c1ccc2ccc(OCc3cncc(-n4cc(C5CCCC5)c5c(N)ncnc54)c3)cc2n1` is at least 1 µM; for `CNc1ccc2ccc(OCc3cccc(-n4cc(C5CC5)c5c(N)ncnc54)c3)cc2n1` it is at least 1 µM. Turning to `Nc1ncnc2c1c([C@H]1CCCO1)cn2-c1cncc(COc2ccc3ccc(N4CCC4)nc3c2)c1`, the IC50 in the test with MOLM-13 was below 1 µM; in test [1], below 0.01 µM. Turning to `CCc1cc(NCCOC)c2c(F)cc(CCc3cncc(-n4cc(-c5ccn(C)n5)c5c(N)ncnc54)c3)cc2n1`, the IC50 in the test with MOLM-13 was below 1 µM; in test [1], below 0.01 µM. Taken in the same sequence, the figures for `Cn1ccc(-c2cn(-c3cncc(COc4ccc5ccc(N6CC(N)C6)nc5c4)c3)c3ncnc(N)c23)n1` were below 1 µM and below 0.01 µM. In the same order, the values of `CCNc1ccc2ccc(CCc3cncc(-n4cc([C@H]5CCCO5)c5c(N)ncnc54)c3)cc2n1` are 1 µM and below 0.01 µM.

Take `CCc1cc(N2CCOCC2)c2ccc(OCc3cncc(-n4cc([C@H]5CCCO5)c5c(N)ncnc54)c3)cc2n1`: in the test with MOLM-13, the IC50 is below 1 µM. Molecule `CNc1ccc2ccc(OCc3cc(F)cc(-n4cc(Cl)c5c(N)ncnc54)c3)cc2n1` registered an IC50 in test [2] of at least 1 µM. The same measure, in the same setting: then `CNc1ccc2ccc(CNc3cccc(-n4cc(Br)c5c(N)ncnc54)c3)cc2n1`, with at least 1 µM.

In the case of `CCNc1ccc2ccc(OCc3cncc(-n4cc([C@@H]5CCCO5)c5c(N)ncnc54)c3)cc2n1`, the figures for the IC50 (in the test with MOLM-13; in test [1]) were below 1 µM and below 0.01 µM, respectively. For `CNc1ccc2ccc(OCc3cncc(-n4ccc5c(N)nc(N)nc54)c3)cc2n1`, the IC50 in test [2] is at least 1 µM. Same read-out and setting: the figure for `CNc1ccc2ccc(OCc3cc(-n4cc(Cl)c5c(N)ncnc54)cnc3N)cc2n1` is at least 1 µM.

Turning to `CNc1ccc2ccc(OCc3cc(-n4cc(Cl)c5c(N)ncnc54)ncn3)cc2n1`, the IC50 in test [2] and in test [1] was at least 1 µM throughout. With `CCc1cc(N2CCN(C)CC2)c2ccc(OCc3cncc(-n4ccc5c(N)ncnc54)c3)cc2n1`, the values for the IC50 (with MOLM-13; in test [1]) were below 1 µM and below 0.01 µM, respectively.

In test [2], `CNc1ccc2ccc(OCc3cccc(-n4ccc5c(N)ncnc54)c3F)cc2n1` gave an IC50 of at least 1 µM. On the same count and under the same terms, then `Cc1cc(N)c2ccc(OCc3cncc(-n4cc(Cl)c5c(N)ncnc54)c3)cc2n1`, with at least 1 µM. The same measure, in the same setting: then `CNc1ccc2ccc(OCc3cncc(-n4ccc5c(C)ncnc54)c3)cc2n1`, with at least 1 µM. Turning to `CCc1cc(N2CCOCC2)c2ccc(OCc3cncc(-n4cc([C@@H]5CCCO5)c5c(N)ncnc54)c3)cc2n1`, the IC50 is below 1 µM with MOLM-13 and below 0.01 µM in test [1]. Taken in the same sequence, the figures for `CCc1cc(NCCOC)c2ncc(OCc3cncc(-n4cc([C@@H]5CCCO5)c5c(N)ncnc54)c3)cc2n1` were below 1 µM and below 0.01 µM.

Molecule `CNc1ccc2ccc(OCc3cncc(-n4cc(CCN(C)C)c5c(N)ncnc54)c3)cc2n1` yielded an IC50 in test [2] of at least 1 µM. For the molecule `CNc1ccc2ccc(CN(C)c3cccc(-n4cc(Br)c5c(N)ncnc54)c3)cc2n1`, the IC50 in test [2] and in test [1] was at least 1 µM each time. Turning to `CNc1ccc2ccc(OCc3cccc(-n4cc(Br)c5c(N)ncnc54)c3)cc2n1`, the IC50 in test [2] was at least 1 µM. In test [2], `Nc1ncnc2c1c(Cl)cn2-c1cncc(COc2ccc3ccc(NCC4CC4)nc3c2)c1` returned an IC50 of at least 1 µM.

`CNc1ccc2ccc(OCc3cncc(-n4ccc5c(N)nc(N(C)C)nc54)c3)cc2n1`: the IC50 in test [2] and in test [1] was at least 1 µM each time. Regarding `CC(C)Nc1ccc2ccc(OCc3cncc(-n4cc(Cl)c5c(N)ncnc54)c3)cc2n1`, the IC50 in test [2] was at least 1 µM. On the same count and under the same terms, then `Nc1ncnc2c1ccn2-c1cncc(COc2ccc3ccc(N4CCCC4)nc3c2)c1`, with at least 1 µM.

On to `CCc1cc(N(C)C)c2ccc(OCc3cncc(-n4ccc5c(N)ncnc54)c3)cc2n1`, for which, in the test on MOLM-13, the IC50 was below 1 µM. On to `CNc1ccc2ccc(OCc3cccc(-n4cc(CCN(C)C)c5c(N)ncnc54)c3)cc2n1`, for which, in test [2], the IC50 was at least 1 µM. Still for that read-out and setting: the figure for `CNc1ccc2ccc(OCc3ccnc(-n4cc(Cl)c5c(N)ncnc54)c3)cc2n1` is at least 1 µM. In the case of `Cc1cc(N)c2ccc(OCc3cccc(-n4ccc5c(N)ncnc54)c3)cc2n1`, the IC50 in test [2] was at least 1 µM. Same read-out and setting: then `C[C@@H]1CCN1c1ccc2ccc(OCc3cncc(-n4cc(C5CCCC5)c5c(N)ncnc54)c3)cc2n1`, with at least 1 µM; and `CNc1ccc2ccc(OCc3cncc(-n4cc(C5CCCC5)c5cncnc54)c3)cc2n1`, with at least 1 µM. In the case of `CNc1ccc2ccc(OCc3nnc(-n4cc(Cl)c5c(N)ncnc54)s3)cc2n1`, the IC50 in test [2] and in test [1] was at least 1 µM in each case. Regarding `C=CC(=O)Nc1nc(N)c2ccn(-c3cncc(COc4ccc5ccc(NC)nc5c4)c3)c2n1`, the IC50 in test [2] and in test [1] was at least 1 µM in each case. Molecule `CS(=O)(=O)c1cn(-c2cncc(COc3ccc4ccc(N5CCC5)nc4c3)c2)c2ncnc(N)c12` had an IC50 in the test with MOLM-13 of 1 µM. On to `Nc1cc(OCc2cncc(-n3cc(Br)c4c(N)ncnc43)c2)ccc1C(=O)N1CCNCC1`, for which, in test [1], the IC50 is at least 1 µM.

For `Cn1ccc(-c2cn(-c3cncc(COc4ccc(C(=O)N5CCC(F)(F)CC5)c(N)c4)c3)c3ncnc(N)c23)n1`, the IC50 in test [1] is at least 1 µM. `CNc1ccc2ccc(OCc3cncc(-n4ccc5c(N)nc(NC)nc54)c3)cc2n1`: the IC50 in test [2] and in test [1] was at least 1 µM in each case. As for `Nc1ncnc2c1ccn2-c1cncc(COc2ccc3c(=O)cc[nH]c3c2)c1`, the IC50 in test [1] was at least 1 µM.

`Nc1ncnc2c1c(C1CCCC1)cn2-c1cncc(COc2ccc3ccc(N4CCC4)nc3c2)c1` came in with an IC50 in test [1] below 0.01 µM. The same measure, in the same setting: then `CCc1cc(NCCOC)c2c(F)cc(OCc3cncc(-n4cc(C5CCCO5)c5c(N)ncnc54)n3)cc2n1` (configuration not stated), with at least 1 µM; and `Cn1ccc(-c2cn(-c3cncc(COc4ccc5ccc(N6CC(=O)C6)nc5c4)c3)c3ncnc(N)c23)n1`, with below 0.01 µM.

With `CNc1ccc2ccc(CCc3cncc(-n4cc(Cl)c5c(N)ncnc54)c3)cc2n1`, the IC50 in test [2] was at least 1 µM. On the same count and under the same terms, then `CNc1ccc2ccc(OCc3cc(-n4cc(Cl)c5c(N)ncnc54)ccc3F)cc2n1`, with at least 1 µM. In test [1], `Nc1ncnc2c1c(C1CCCO1)cn2-c1cncc(COc2cnc3ccc(N4CCC4)nc3c2)c1` (configuration not stated) registered an IC50 of at least 1 µM. The molecule `CNc1ccc2ccc(OCc3cc(C#N)cc(-n4ccc5c(N)ncnc54)c3)cc2n1` showed an IC50 in test [2] of at least 1 µM. Regarding `Cn1ccc(-c2cn(-c3cncc(COc4ccc5ccc(N6CC(CO)(CO)C6)nc5c4)c3)c3ncnc(N)c23)n1`, the IC50 in test [1] was at most 1 µM. Molecule `CNc1ccc2ccc(OCc3cccc(-c4c[nH]c5c(N)ncnc45)c3)cc2n1` registered an IC50 in test [2] of at least 1 µM. For `CNc1ccc2ccc(OCc3cc(-n4cc(Cl)c5c(N)ncnc54)ccc3OC)cc2n1`, the IC50 in test [2] and in test [1] was at least 1 µM each time. `CNc1ccc2ccc(OCc3cncc(-n4cc(C5CCN(C)CC5)c5c(N)ncnc54)c3)cc2n1` returned an IC50 in test [2] of at least 1 µM. On the same count and under the same terms, then `CNc1ccc2ccc(OCc3cc(O)cc(-n4cc(Cl)c5c(N)ncnc54)c3)cc2n1`, with at least 1 µM.

The molecule `Cc1cc(N)c2ccc(OCc3cccc(-n4cc(Cl)c5c(N)ncnc54)c3)cc2n1` gave an IC50 in test [2] of at least 1 µM.

Molecule `Nc1ncnc2c1c(Cl)cn2-c1cncc(COc2ccc3ccc(N4CCCC4)nc3c2)c1` yielded an IC50 in test [2] of at least 1 µM.

`Nc1ncnc2c1c(CO)cn2-c1cncc(COc2ccc3ccc(N4CCC4)nc3c2)c1` registered an IC50 in test [1] below 0.01 µM. Same read-out and setting: then `CCNc1ccc2ccc(CCc3cncc(-n4cc([C@@H]5CCCO5)c5c(N)ncnc54)n3)cc2n1`, with below 0.01 µM; and `CCc1cc(NCCN(C)C)c2ccc(CCc3cncc(-n4cc([C@H]5CCCO5)c5c(N)ncnc54)c3)cc2n1`, with below 0.01 µM. Consider `Nc1ccc2ccc(OCc3cccc(-n4cc(Cl)c5c(N)ncnc54)c3)cc2n1`, for which the IC50 in test [2] and in test [1] was at least 1 µM each time. On to `Cn1ccc(-c2cn(-c3cncc(COc4ccc5ccc(N6CCOCC6=O)nc5c4)c3)c3ncnc(N)c23)n1`, for which the IC50 in test [1] was at least 1 µM. Regarding `CNc1ccc2ccc(OCc3cccc(-n4cc(Cl)c5c(N)ncnc54)n3)cc2n1`, the IC50 in test [2] was at least 1 µM. In test [2], `CNc1ccc2ccc(OCc3cccc(-n4cc(CC5CC5)c5c(N)ncnc54)c3)cc2n1` registered an IC50 of at least 1 µM. As to `CN(CCO)C(=O)c1ccc(OCc2cncc(-n3cc(-c4ccn(C)n4)c4c(N)ncnc43)c2)cc1N`, the half-inhibitory concentration (IC50) in test [1] is at least 1 µM. Same read-out and setting: the figure for `CCc1cc(NCCN(C)C)c2ccc(CCc3cncc(-n4cc([C@@H]5CCCO5)c5c(N)ncnc54)c3)cc2n1` is at most 0.1 µM. The molecule `CNc1ccc2ccc(OCc3cc(OC)cc(-n4cc(Cl)c5c(N)ncnc54)c3)cc2n1` gave an IC50 in test [2] of at least 1 µM. Take `C=CC(=O)N(CCC(=O)O)c1nc(N)c2ccn(-c3cncc(COc4ccc5ccc(NC)nc5c4)c3)c2n1`: the IC50 in test [2] and in test [1] was at least 1 µM in each case.

The molecule `Nc1ncnc2c1c(Cl)cn2-c1cccc(COc2ccc3ccc(NCC4CC4)nc3c2)c1` yielded an IC50 in test [2] of at least 1 µM.

Take `Cn1ccc(-c2cn(-c3cncc(COc4ccc5cnc(N6CCC6)nc5c4)c3)c3ncnc(N)c23)n1`: the IC50 in test [1] was at least 1 µM. Still for that read-out and setting: then `CCc1nc(N)c2ccn(-c3cncc(COc4ccc5ccc(NC)nc5c4)c3)c2n1`, with below 0.01 µM.

In test [2], `CCc1ncc(-n2cc(Cl)c3c(N)ncnc32)cc1COc1ccc2ccc(NC)nc2c1` registered an IC50 of at least 1 µM. With `Cn1ccc(-c2cn(-c3cncc(COc4cc(F)ccc4C(=O)NC4CCOCC4)c3)c3ncnc(N)c23)n1`, the IC50 in test [1] was at least 1 µM. Still for that read-out and setting: then `Nc1ncnc2c1c(Cl)cn2-c1csc(COc2ccc3ccc(N4CCCC4)nc3c2)n1`, with at least 1 µM; and `Cn1ccc(-c2cn(-c3cncc(CS(=O)(=O)c4ccc5ccc(N6CCC6)nc5c4)c3)c3ncnc(N)c23)n1`, with at least 1 µM. The molecule `CNc1ccc2ccc(OCc3cccc(-n4ccc5c(N)ncnc54)c3)cc2n1` registered an IC50 in test [2] of at least 1 µM.
